# In the supplement of paper PMC3334620:
# Over roughly 33,000 sequences, “E-score (-0.5 to 0.5)” has its median near -0.021; the highest 2% begin near 0.32. This is one part of the list.
# Molecular target: T1, Zap1 (UniProt P47043)
# T1 sequence: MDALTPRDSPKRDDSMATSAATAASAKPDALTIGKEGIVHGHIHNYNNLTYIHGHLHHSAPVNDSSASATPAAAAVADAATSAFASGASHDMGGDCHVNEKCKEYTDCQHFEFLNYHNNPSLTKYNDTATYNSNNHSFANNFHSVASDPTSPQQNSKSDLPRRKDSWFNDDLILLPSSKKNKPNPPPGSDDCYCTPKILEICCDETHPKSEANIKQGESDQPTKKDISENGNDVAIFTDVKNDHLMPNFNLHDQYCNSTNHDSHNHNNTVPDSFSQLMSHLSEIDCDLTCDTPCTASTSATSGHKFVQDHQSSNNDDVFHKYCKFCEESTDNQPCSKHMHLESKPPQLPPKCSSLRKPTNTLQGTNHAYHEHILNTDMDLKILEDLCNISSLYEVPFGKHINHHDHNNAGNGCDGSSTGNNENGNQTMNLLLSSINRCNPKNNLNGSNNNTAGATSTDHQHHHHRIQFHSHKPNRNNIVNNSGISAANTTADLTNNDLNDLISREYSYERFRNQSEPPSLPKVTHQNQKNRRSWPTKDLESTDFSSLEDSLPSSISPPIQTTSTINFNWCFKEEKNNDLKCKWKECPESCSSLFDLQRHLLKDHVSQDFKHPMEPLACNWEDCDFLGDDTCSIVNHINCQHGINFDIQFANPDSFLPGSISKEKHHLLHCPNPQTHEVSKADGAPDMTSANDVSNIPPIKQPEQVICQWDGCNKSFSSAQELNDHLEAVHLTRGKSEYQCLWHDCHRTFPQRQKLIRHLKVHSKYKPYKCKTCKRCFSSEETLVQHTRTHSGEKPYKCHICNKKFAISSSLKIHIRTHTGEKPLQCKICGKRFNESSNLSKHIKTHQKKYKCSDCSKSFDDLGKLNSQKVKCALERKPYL
# Experiment: PBM E-score (8-mer binding enrichment) (E-score (-0.5 to 0.5)); higher = stronger / more preferred TF binding; most listed sequences are background and not binding sites
# Conditions: protein concentration: 200 nM; construct: GST-full length
# Procedure, shortened: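 Each ungapped eight-base word and its reverse complement, pooled, received an E-score from the Universal PBM Analysis Suite. Underlying scans, normalised with masliner, recorded fluorescent anti-GST bound to GST-tagged yeast transcription factors. These were applied at about 100-200 nM to universal all-10-mer Agilent arrays double-stranded by primer extension.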
row,Sequence,PBM E-score
1,CCCATACA,0.0957
2,ACCTAAAC,0.189
3,ATGCCTGG,-0.191
4,GCTACGTA,-0.002
5,ACTTGCAT,-0.0793
6,ACAGCGGG,-0.176
7,ATTGCAGC,-0.168
8,ACAGTTAG,-0.0431
9,AGAGTGTG,-0.0409
10,ACACATAG,-0.0884
11,GACTCGTA,-0.0232
12,CTTTACGC,-0.0324
13,CAATCCAG,-0.0505
14,CACTATGG,-0.16
15,CAAAGCGG,0.088
16,AGCGTCAT,0.0506
17,CGCAACTA,0.162
18,TCTGACAA,0.0265
19,CCGTTCCA,-0.114
20,AGCTATTA,-0.0963
21,GAGCCTAA,-0.117
22,ATAATTCA,0.165
23,GAAGGCGC,-0.32
24,CAAGAACC,0.307
25,TGCCGTAA,-0.0417

row,Sequence,PBM E-score
1,CGTTAACG,0.0895
2,AAAGACCG,0.133
3,GAAACTGA,-0.152
4,CCGACCTA,-0.0342
5,GCACTCCC,-0.211
6,ATCGAGAT,-0.23
7,CGCCTTGA,-0.0574
8,CGTCGCTA,-0.0625
9,TCGGTCAA,0.0938
10,GATTAAGC,-0.141
11,ACATAAGT,-0.0816
12,AAACTTCA,0.00932
13,CTCCCCGA,-0.0635
14,CAAATCTG,-0.025
15,AATTTAGC,0.0216
16,ACGCGACG,-0.0804
17,CACTACAA,0.141
18,ACGGCGAT,-0.0981
19,AAAGTTCT,-0.114
20,GGGGCACC,0.0177
21,ATACAATG,0.0742
22,AATGGGAA,-0.235
23,AACATGGC,-0.325
24,CGGTGAAA,0.0511
25,AAGAAGAT,0.00139

row,Sequence,PBM E-score
1,AAAGTAAA,0.0371
2,AGAAAGTG,-0.12
3,ATGAGTAA,0.042
4,ATTGCATC,-0.00765
5,CTTTTCCC,-0.111
6,ATCACAAC,0.191
7,TCTGCAAA,-0.0699
8,AGCGCCGA,-0.227
9,AGAGCCTA,-0.224
10,GTACATAC,-0.0078
11,AACACGTT,-0.244
12,GCAATAGA,-0.159
13,CTCCTTTA,-0.101
14,AAGAAATA,0.0992
15,ATGCTATA,-0.0594
16,GCTCCACA,-0.199
17,GAAAAAGC,0.116
18,ACGAAAAG,0.0301
19,CAACTGAC,-0.0851
20,CTAGTGAG,-0.0258
21,ATCTTAAG,-0.0759
22,CTTAACTA,0.104
23,CGTCTGAC,-0.0141
24,CAGGTGGA,-0.26
25,TGTAACAA,0.137

row,Sequence,PBM E-score
1,AACGCCCC,0.0639
2,ATCAGAAA,0.0764
3,ATTCTCAG,-0.0721
4,AATAGGGC,-0.152
5,ACTTTCAT,0.105
6,AAAGGCAT,-0.0928
7,CTGCGATC,-0.138
8,AGCTGAGC,-0.185
9,GGAGGCGA,-0.32
10,AATCCTTG,0.0209
11,CCTCATTA,0.257
12,TCGCCAAA,0.165
13,ATTTGCTG,0.0428
14,AGTTCTCG,-0.0306
15,CAGCGACC,0.0723
16,AAGTCAAC,0.0212
17,AATATCAC,-0.0168
18,ACGGCTCT,-0.205
19,CAATAAGA,0.101
20,ATCCCCGA,-0.145
21,ATACTTCA,-0.0599
22,ATCTTAAA,0.194
23,GAGCCCCC,-0.216
24,CCTTGCTA,0.105
25,CAAGCGGA,-0.217

row,Sequence,PBM E-score
1,AGAAGCCA,-0.0472
2,ATGAGGAG,-0.273
3,CCCGTCAC,0.0288
4,ATCGATGC,-0.0302
5,GACGATAA,0.0193
6,CTTAATGA,0.0983
7,CCGACTAG,-0.231
8,AAATTTAT,0.0296
9,AGCGGCAT,-0.0116
10,GCATTTCC,-0.101
11,GTCCAGGA,-0.0884
12,TTCACCAA,0.0162
13,AGTATCAC,0.0276
14,GATCTTCC,-0.101
15,AATCACGG,0.173
16,GTCGTACA,-0.0132
17,CCACACGG,0.116
18,ATGCGGAA,-0.0497
19,AACACTAC,0.152
20,CGGCACAG,-0.191
21,GAGATTTA,-0.085
22,CACTATGC,-0.106
23,AGAATCGC,-0.202
24,CCGCGAAA,0.141
25,ACTTAATA,0.0479

row,Sequence,PBM E-score
1,AGCCGTGC,-0.283
2,ACGCCAAA,-0.122
3,CAAAGCTA,0.018
4,GGATTGAC,-0.135
5,GATCGGAC,-0.124
6,AGGTGGTC,0.142
7,ATATGCAC,-0.00523
8,GTTACCCA,0.312
9,ATCGTTGG,0.0101
10,AAGTATCA,0.1
11,AAGATTAC,0.0483
12,GCGATAGA,-0.12
13,ACCTGAGG,0.0112
14,ATATAGCA,0.0209
15,GCTACACC,0.0249
16,ACACGCGG,0.102
17,CAAACCAA,0.114
18,ACATGTAG,0.0452
19,GCCTGGAA,-0.0664
20,CAACACTG,-0.0719
21,CGCTACCC,0.302
22,AAACTGCC,-0.0435
23,AGTACAAA,0.125
24,CGGCGATA,-0.0117
25,CGTTCAGA,-0.0764

row,Sequence,PBM E-score
1,CGATAACA,0.131
2,ATGATGCA,-0.0633
3,ATTGCATA,0.0531
4,AACACGAG,0.205
5,CCGCAGAG,-0.136
6,AGCTAACC,0.253
7,ACTGATAT,-0.0416
8,AAGCATGG,-0.138
9,ACACAAAT,0.161
10,CATACACG,0.0354
11,CTGCAGGA,0.0103
12,AGGCGGTA,0.0442
13,CAGGTAAG,-0.0717
14,CGAGCTCA,-0.0242
15,GTAAGCGA,-0.0888
16,CCATAAAC,0.0419
17,TCCGAGAA,0.0508
18,GAATGACA,-0.0394
19,AATAGCGT,0.0933
20,GGGTGGCA,0.0831
21,GGTCCCAC,0.0167
22,AGACGCGC,-0.155
